According to PubChem BioAssay AID493208 (National Center for Advancing Translational Sciences (NCATS), 2011):
Screen size: about 44,000 compounds; about 340 (0.77%) were called active. Another 5% or so got no clear call; they are omitted. Calls follow the shape of the dose curve; as a rule, active = well fitted inhibition curve with a large enough effect; inconclusive = small, poorly fitted or top-dose-only effect; inactive = flat fitted curve, though single readings scatter. This is one part of the list.

experiment: Acumen qHTS Assay for Inhibitors of the mTORC1 Signaling Pathway in MEF (Tsc2-/-, p53-/-) Cells: Sytravon; conditions: phospho-rpS6 immunofluorescence/PI, 24 h; series mostly up to 38.3 µM; activity change, negative = inhibition: at the top concentration; also: nearly all actives have a fitted effect of over 50% in size;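 as to activity change, negative = inhibition: plate controls were DMSO for no effect and rapamycin for full effect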
Procedure, shortened: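 Plate MEFs (Tsc2-/-, p53-/-, empty vector) in DMEM/10% FBS; after 24 h add compound, incubate 24 h at 37 degree Celsius; fix in PFA/TX-100, block, stain phospho-rpS6 and 10 uM PI; scan at 488 nm; report % positive cells.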
Potency is read from the fitted curve at half-maximal effect.

SMILES | activity change, negative = inhibition | Potency
COc1cccc(-n2cc(C(=O)NCc3ccccc3OC)c3ccccc3c2=O)c1 | inactive: 3.5% | 
Cc1ccccc1Cn1c(=O)n(CCc2ccccc2)c(=O)c2c(C)c(C)sc21 | inactive: 0.953% | 
COc1cccc(OCCSc2nc3ccccc3n2CC(=O)N2CCCCC2)c1 | inactive: 0.45% | 
COC(=O)c1cc(S(=O)(=O)NCC2CCN(Cc3cccc(F)c3)CC2)c[nH]1 | inactive: 6.98% | 
CCc1cc2c(cc3c(=O)n(CC(=O)NCCc4ccc(OC)c(OC)c4)ncn32)s1 | inactive: -8.53% | 
COC(=O)CSc1nc(-c2ccc(F)cc2)cc(C(F)(F)F)n1 | inactive: -13.1% | 
O=C(CCn1ccc2cc(S(=O)(=O)N3CCCC3)ccc21)NCc1cccc(F)c1 | inactive: -1.82% | 
COc1cc(OC)c(C2Nc3ccccc3-c3nnc(SCc4ccccc4)nc3O2)cc1OC (centres undefined) | inactive: -8.33% | 
COc1ccc(OC)c(C2N=C(N)Nc3nc4ccccc4n32)c1 (centres undefined) | inactive: 1.1% | 
COc1ccc(NC(=O)Cn2c(=O)n(Cc3nc(C)no3)c(=O)c3cc4c(cc32)OCO4)cc1OC | inactive: -5.73% | 
Cc1cccc(C)c1-n1ncc(C(=O)NCCN2CCOCC2)c1C1CCN(C(=O)OC(C)(C)C)CC1 | inactive: 2.03% | 
Cc1nc(-c2ccc(Cl)cc2)sc1CCNC(=O)c1ccc(C(F)(F)F)cc1 | inactive: 0.44% | 
Cc1ccc(C)c(NC(=O)CCn2nc(C)c3c(C)n(-c4ccccc4)nc3c2=O)c1 | inactive: -1.22% | 
Cc1cccc(-c2nn3c(=O)cc(CN4CCN(S(=O)(=O)c5ccc(Cl)cc5)CC4)nc3s2)c1 | inactive: 9.33% | 
CCC(C(=O)Nc1ccccc1C(=O)OC)n1nc(C)c2c(C)n(-c3ccc(C)cc3)nc2c1=O (centres undefined) | inactive: -7.23% | 
Cc1ccc(C)c(NC(=O)c2ccc3c(c2)CCN3S(C)(=O)=O)c1 | inactive: -1.72% | 
COc1ccc(NC(=O)C(c2ccc(C)cc2)N(C)C(=O)Cc2cccs2)cc1 (centres undefined) | inactive: -1.55% | 
COc1ccccc1CNC(=O)CSc1ncc2c(n1)-c1ccc(Cl)cc1N(Cc1ccccc1)S2(=O)=O | inactive: -1.69% | 
Cc1c(Cl)cccc1NC(=O)C(C)n1c(=O)cc(-c2ccccc2)c2c(C)nn(C)c21 (centres undefined) | inactive: -2.17% | 
CCc1ccc(NC(=O)c2sc3nc(C)c(Cl)c(C)c3c2N)cc1 | inactive: -0.767% | 
O=C(Cn1c(-c2cccs2)cc2cc(Cl)ccc21)N1CCN(c2ccccc2)CC1 | inactive: -13.1% | 
CCOc1ccccc1C(=O)N1CC(=O)Nc2ccc(Cl)cc2C1c1ccccc1 (centres undefined) | inactive: 10.8% | 
COc1ccc(-c2cccc(NS(=O)(=O)c3cc(C)c(OC)c(C)c3C)c2)nn1 | inactive: -11.3% | 
Cc1ccc(NC(=O)C2CCCN2S(=O)(=O)c2ccc3c(c2)CCCC(=O)N3)cc1C (centres undefined) | inactive: -4.65% | 

SMILES | activity change, negative = inhibition | Potency
O=C(Cn1c(=O)c2cc(Cl)ccc2n2nncc12)Nc1ccccc1 | inactive: 0.853% | 
O=C(CC(c1cccs1)N1Cc2ccccc2C1=O)Nc1ccc(F)c(Cl)c1 (centres undefined) | inactive: 0.828% | 
CC(=O)Nc1cc(C(=O)NCc2ccc(C)cc2)ccc1Sc1ccc(C)cc1 | inactive: 5.89% | 
C=CCC(CC=C)(CNC(=O)C(=O)Nc1cccc(C(F)(F)F)c1)c1ccccc1 | inactive: 0.999% | 
CCc1ccc(-c2nc(CN3CCCC(C(=O)N4CCN(c5cc(Cl)ccc5C)CC4)C3)c(C)o2)cc1 (centres undefined) | inactive: 0.385% | 
CC(CNC(=O)Cn1ccc2cc(S(=O)(=O)N3CCCCCC3)ccc21)c1ccccc1 (centres undefined) | inactive: -10.1% | 
COc1ccc(Cl)cc1NC(=O)CN(C)S(=O)(=O)c1ccc2c(c1)CCCN2C(C)=O | inactive: -17.5% | 
CCOC(=O)c1ccc(N2CCN(c3cccc(Cl)c3)CC2)c(NC(=O)Nc2ccc(OC)cc2OC)c1 | inactive: -15.9% | 
Cc1cccc(-n2c(=O)c3c(c4cc(C)ccc4n3C)n(CC(=O)NCCC3=CCCCC3)c2=O)c1 | inactive: -5.82% | 
COc1ccc(-c2noc(-c3cccnc3NCc3ccco3)n2)cc1 | inactive: 3.85% | 
COc1ccc(-c2onc(C)c2C)cc1S(=O)(=O)NCC1CCN(Cc2ccccc2F)CC1 | inactive: -20.5% | 
CCOC(=O)CSc1nc2ccccc2c(=O)n1CCc1ccc(OC)c(OC)c1 | inactive: -10% | 
Cc1ccc(Oc2c(C(F)(F)F)oc3cc(OCC(=O)NC4CCCCC4)ccc3c2=O)cc1 | inactive: 0.869% | 
CCCN1C(=O)C(O)(CC(=O)c2ccc(CC)cc2)c2ccccc21 (centres undefined) |  | active: 14.7 µM
CCc1cccc(C)c1NC(=O)CSc1nc(C)cc(C)c1C(=O)Nc1ccccc1 | inactive: 0.7% | 
CC(C)Sc1ncc(Cl)c(C(=O)Nc2nnc(C(C)C)s2)n1 | inactive: -9.65% | 
CCc1ccc(NC(=O)Cn2c(=O)oc3cc(S(=O)(=O)N4CCCCCC4)ccc32)cc1 | inactive: -0.766% | 
Cc1onc(-c2ccc(F)cc2F)c1C(=O)Nc1cccc(C(F)(F)F)c1 | inactive: 1.59% | 
CN(C(=O)C(=O)Nc1ccc2nc3n(c(=O)c2c1)CCCCC3)c1cccc(C(F)(F)F)c1 | inactive: 2.37% | 
CCc1ccc(CNC(=O)c2cc(-c3ccc(Br)s3)nc3ccccc23)cc1 | inactive: -8.63% | 
O=C(Nc1ccccc1)c1cccc(S(=O)(=O)Nc2cccc(F)c2)c1 | inactive: -8.06% | 
CCCOc1ccc(C2C(=O)N(C3CCC(C)CC3)CC(=O)N2CCC2=CCCCC2)cc1OC (centres undefined) | inactive: 7.47% | 
COc1ccc(OC)c(-c2cc(C(=O)NC(C)c3ccccc3)no2)c1 (centres undefined) | inactive: -1.09% | 
COc1cccc(-c2ccc3c(N)c(C(=O)NCc4ccc(Cl)cc4)sc3n2)c1 | inactive: -4.53% | 

SMILES | activity change, negative = inhibition | Potency
Cc1cccc(N2CCN(C3(c4ccccc4)C(=O)c4ccccc4C3=O)CC2)c1C | inactive: -3.67% | 
Cc1ccc(S(=O)(=O)N2CCOCC2)cc1C(=O)Nc1ccccc1C(=O)O | inactive: -0.641% | 
Cc1ccc2onc(CC(=O)N(C)c3ccccc3)c2c1 | inactive: -3.73% | 
O=S(=O)(Nc1ccc2nc(-c3cccc(Cl)c3)oc2c1)c1ccccc1 | inactive: 0.974% | 
O=S(=O)(Nc1nc2n(n1)C(c1ccc(F)cc1)C=C(c1ccccc1)N2)c1ccc(Cl)cc1 (centres undefined) | inactive: 2.06% | 
CCn1cc(C(=O)NCc2ccc(C)cc2)c(=O)c2cc(S(=O)(=O)N3CCCCCC3)ccc21 | inactive: -6.5% | 
CCOc1ccc(CNC(=O)c2ccc(NC(=O)N3CCCCc4ccccc43)cc2)cc1OC | inactive: -6.22% | 
COc1ccccc1CNC(=O)c1ccc2nc(-c3ccccc3)c(-c3ccccc3)nc2c1 | inactive: 4.52% | 
O=C(CCc1nc2cccnc2n1Cc1cccs1)Nc1cccc(Cl)c1 | inactive: -0.225% | 
Cc1nn(C)c2c1c(C(F)(F)F)cc(=O)n2Cc1cccc(Br)c1 | inactive: -3.99% | 
CCOC(=O)c1cc(-c2ccccc2)n(CCC(=O)Nc2ccc(Cl)c(C(F)(F)F)c2)c1C | inactive: -22.5% | 
Cc1cccc(NS(=O)(=O)c2ccc(-n3cccn3)cc2)c1C | inactive: -2.98% | 
CC(C)CNc1nc(Oc2ccc(OCC(N)=O)nn2)nc(N2CCOCC2)n1 | inactive: -4.36% | 
Cn1cc(S(=O)(=O)N2CCCCCC2)cc1C(=O)NCc1ccccc1Cl | inactive: -6.41% | 
CCCNC(=O)C1CCN(c2ncnc3c2nc2n3CCCCC2)CC1 | inactive: 0.422% | 
CCCC(=O)NCC(c1ccc2c(c1)OCO2)N1CCN(c2ccccc2)CC1 (centres undefined) | inactive: -3.02% | 
CCOC(=O)N1CCc2c(sc(NCc3ccc(OC)c(OC)c3OC)c2C(=O)Nc2ccc(OC)cc2OC)C1 | inactive: -7.7% | 
CCc1ccc(-n2c(=O)c3sc4ccccc4c3n(Cc3cccc(F)c3)c2=O)cc1 | inactive: -0.964% | 
CCCCCOc1ccc(/C=C/C(=O)Nc2sc(C(C)=O)c(C)c2C(=O)OCC)cc1OC | inactive: -10.3% | 
CCc1nnc(NC(=O)c2nc(SCc3ccccc3C)ncc2Cl)s1 | inactive: 2% | 
Cc1oc(C)c2c(=O)cc(-c3ccc4c(c3)OCO4)cc(OC(=O)c3ccccc3Cl)c12 | inactive: 0% | 
Cc1c(Cl)cccc1NC(=O)Cn1c(=O)nc(-c2ccccc2)c2ccccc21 | inactive: 0% | 
COc1ccc(C2=CC(c3ccccc3F)n3ncc(C(=O)Nc4ccc(C)cc4)c3N2)cc1 (centres undefined) | inactive: -4.44% | 
CCN(CC)C(=O)c1sc(NC(=O)C(C)Sc2nc(-c3ccccc3)cc(C(F)(F)F)n2)c(C(=O)OC)c1C (centres undefined) | inactive: 1% | 

SMILES | activity change, negative = inhibition | Potency
CCC(=O)Nc1ccc(S(=O)(=O)NCc2ccc3c(c2)CCN3C(=O)c2ccc(C)cc2)cc1 | inactive: -10.8% | 
COC(=O)c1ccccc1NC(=O)CCC(=O)N1CCOc2ccccc21 | inactive: 4.63% | 
Cc1cccc(-c2c3c(=O)n(C)c(=O)n(C)c3cn2-c2cc(N)c(Cl)cc2Cl)c1 | inactive: -11.5% | 
CN(C)c1oc(/C=C/c2ccc(F)cc2)nc1C#N | inactive: -4.07% | 
CCN(c1ccccc1)c1nnc(NC(=O)Nc2cccc(Cl)c2C)s1 | inactive: 2.42% | 
CC(=O)c1ccc(NC(=O)Nc2nnc(N3CCCC(C)C3)s2)cc1 (centres undefined) | inactive: -0.0685% | 
CSc1ccc(-c2nc3ncccn3c2Nc2ccc(C)c(C)c2)cc1 | inactive: -12.8% | 
Nc1cc(=O)nc(SCC(=O)Nc2cccc(Cl)c2)n1CCc1ccccc1 | inactive: -0.639% | 
Cc1nc2c(C(=O)NCCc3ccccc3)cnn2c(C)c1Cc1c(F)cccc1Cl | inactive: 3.13% | 
Cc1c2cnn(CC(=O)NCc3ccc(F)cc3)c(=O)c2c(C)n1Cc1ccccc1F | inactive: -9.85% | 
CC(C)(C)OC(=O)N1CCC(c2c(C(=O)NCc3cccs3)cnn2-c2ccc(F)cc2F)CC1 | inactive: 3.77% | 
COc1ccc(Cl)cc1Nc1ncnc2c1c(-c1ccccc1)cn2-c1ccccc1 | inactive: -21.5% | 
CCOCCCNC(=O)c1cc2c(-c3ccc(OC)c(OC)c3)nn(C)c2s1 | inactive: 4.91% | 
COCCN1CCc2nc(SCC(=O)Nc3ccc(Br)cc3)[nH]c(=O)c2C1 | inactive: -8.58% | 
COc1ccc(NC(=O)Nc2sc3nc4n(c(=O)c3c2C)CCC(C)CC4)cc1OC (centres undefined) | inactive: 1.67% | 
CCS(=O)(=O)c1ncc(Cl)c(C(=O)N2CCN(c3cccc(Cl)c3)CC2)n1 |  | active: 2.61 µM
NC(=O)C1(N2CCCCC2)CCN(C(=O)Nc2ccc(C(F)(F)F)cc2)CC1 | inactive: 4.06% | 
Cc1ccc(NCc2ccccc2-c2nnc(-c3ccccc3Cl)o2)c(C)c1 | inactive: -9.41% | 
COc1ccccc1-c1cc(C(F)(F)F)nc(S(=O)(=O)CCCC(=O)Nc2cc(OC)c(OC)c(OC)c2)n1 | inactive: 0% | 
Cc1cc(C)c2c(=O)cc(CSc3nnc(COc4ccccc4C)n3C)[nH]c2c1 | inactive: 2.77% | 
Cc1ccc2c(c1)c1c(c(=O)n(-c3ccccc3C)c(=O)n1CC(=O)NCc1ccccc1)n2C | inactive: -7.06% | 
O=c1cc(-c2ccccc2)c2cc(Cl)c3c(c2o1)CN(Cc1ccccc1)CO3 | inactive: 6.15% | 
